These are yes or no findings as the source states them, for the method shown. Binding seen in cells or lysates may run through a third protein. Some binding calls cover weakened binding; strength is not graded here. For part of these data: Where a sequence is shown, tags or fusion partners need not be part of it.

By UniProt entry, the sequences of proteins in these tests, tags left out.
UniProt P08754: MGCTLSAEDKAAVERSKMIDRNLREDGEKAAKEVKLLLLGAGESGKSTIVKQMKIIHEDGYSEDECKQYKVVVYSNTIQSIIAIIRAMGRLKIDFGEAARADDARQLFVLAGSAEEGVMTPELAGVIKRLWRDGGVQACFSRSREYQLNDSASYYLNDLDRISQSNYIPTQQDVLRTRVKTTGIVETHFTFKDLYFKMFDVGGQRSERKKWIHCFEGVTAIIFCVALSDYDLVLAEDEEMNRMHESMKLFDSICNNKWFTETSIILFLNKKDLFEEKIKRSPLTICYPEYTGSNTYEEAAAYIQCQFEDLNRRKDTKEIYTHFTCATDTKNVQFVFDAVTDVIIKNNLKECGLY
UniProt P51810: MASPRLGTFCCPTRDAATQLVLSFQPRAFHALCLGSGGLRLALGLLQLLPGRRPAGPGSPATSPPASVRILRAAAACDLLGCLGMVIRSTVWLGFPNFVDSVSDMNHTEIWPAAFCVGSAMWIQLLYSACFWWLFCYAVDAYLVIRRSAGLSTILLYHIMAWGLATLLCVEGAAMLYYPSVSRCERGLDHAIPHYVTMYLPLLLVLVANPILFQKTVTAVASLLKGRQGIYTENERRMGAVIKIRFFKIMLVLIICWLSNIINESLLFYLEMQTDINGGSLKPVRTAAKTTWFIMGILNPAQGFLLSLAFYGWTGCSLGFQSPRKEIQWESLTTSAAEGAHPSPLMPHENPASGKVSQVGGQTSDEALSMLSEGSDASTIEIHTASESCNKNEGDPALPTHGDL
UniProt P63092: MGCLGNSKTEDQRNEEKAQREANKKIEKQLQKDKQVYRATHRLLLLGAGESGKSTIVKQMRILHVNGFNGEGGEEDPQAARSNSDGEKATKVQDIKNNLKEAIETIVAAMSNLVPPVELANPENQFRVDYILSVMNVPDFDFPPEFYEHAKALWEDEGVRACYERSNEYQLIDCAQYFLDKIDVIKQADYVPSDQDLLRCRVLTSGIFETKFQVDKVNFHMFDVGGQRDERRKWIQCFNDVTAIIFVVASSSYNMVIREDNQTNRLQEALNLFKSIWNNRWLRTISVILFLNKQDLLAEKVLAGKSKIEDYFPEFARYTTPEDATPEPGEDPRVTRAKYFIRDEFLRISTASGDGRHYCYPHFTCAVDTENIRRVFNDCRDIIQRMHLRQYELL
UniProt P04899: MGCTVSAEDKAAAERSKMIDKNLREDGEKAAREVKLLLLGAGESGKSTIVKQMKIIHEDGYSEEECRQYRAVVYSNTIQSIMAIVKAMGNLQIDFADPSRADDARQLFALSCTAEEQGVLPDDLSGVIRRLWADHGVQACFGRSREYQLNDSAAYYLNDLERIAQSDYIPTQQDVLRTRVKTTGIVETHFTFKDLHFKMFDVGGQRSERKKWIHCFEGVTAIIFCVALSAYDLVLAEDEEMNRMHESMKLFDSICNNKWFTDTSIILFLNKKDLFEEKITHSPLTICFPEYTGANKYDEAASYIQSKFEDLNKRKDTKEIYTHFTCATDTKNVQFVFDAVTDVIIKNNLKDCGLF
UniProt P50148: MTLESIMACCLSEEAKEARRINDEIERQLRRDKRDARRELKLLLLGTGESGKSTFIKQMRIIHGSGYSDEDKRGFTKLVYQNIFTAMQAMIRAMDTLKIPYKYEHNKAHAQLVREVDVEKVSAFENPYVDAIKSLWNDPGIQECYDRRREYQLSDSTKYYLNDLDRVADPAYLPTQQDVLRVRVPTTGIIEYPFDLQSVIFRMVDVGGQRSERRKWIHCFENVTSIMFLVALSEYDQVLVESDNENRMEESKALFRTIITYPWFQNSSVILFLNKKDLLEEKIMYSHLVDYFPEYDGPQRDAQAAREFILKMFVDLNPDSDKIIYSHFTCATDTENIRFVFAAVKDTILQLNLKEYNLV
UniProt P63096: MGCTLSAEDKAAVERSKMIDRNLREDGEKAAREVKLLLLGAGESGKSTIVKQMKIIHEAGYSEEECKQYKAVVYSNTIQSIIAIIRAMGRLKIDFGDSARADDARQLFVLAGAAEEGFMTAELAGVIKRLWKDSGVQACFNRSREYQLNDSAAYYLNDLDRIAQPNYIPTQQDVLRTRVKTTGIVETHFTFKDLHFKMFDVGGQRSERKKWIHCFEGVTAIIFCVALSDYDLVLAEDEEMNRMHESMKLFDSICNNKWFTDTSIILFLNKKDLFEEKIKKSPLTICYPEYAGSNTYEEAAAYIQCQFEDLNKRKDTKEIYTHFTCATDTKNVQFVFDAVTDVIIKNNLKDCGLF

Assay [1] has as its target T1, GST::Oa1-i3 fusion protein (third intracellular loop of mouse Oa1, residues 213-248) (mouse) (UniProt P70259).
T1 sequence: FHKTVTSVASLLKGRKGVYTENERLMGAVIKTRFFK
The experiment in a line: pull-down; about 1 ug GST or GST-fusion protein on glutathione agarose resin, incubated with 10 ul 35S-labeled in-vitro translated Gα protein; 50 mM Tris pH 7.5, 100 mM NaCl, 0.5% Triton X-100; 2 h at room temperature; SDS-PAGE and autoradiography; only the target purified.

Assay [2] addresses T2, GST::Oa1-CT fusion protein (carboxy-terminal tail of mouse Oa1, residues 314-405) (mouse) (UniProt P70259).
T2 sequence: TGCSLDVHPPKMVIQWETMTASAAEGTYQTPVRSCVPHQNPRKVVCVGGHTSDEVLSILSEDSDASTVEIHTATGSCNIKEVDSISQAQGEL
The description is as above.

The target of assay [3] is Gαi3 (guanine nucleotide binding protein, alpha inhibiting activity polypeptide 3), endogenous in human RPE (human (endogenous in RPE)) (UniProt P08754). The experiment in a line: co-IP; adult human RPE lysate in RIPA buffer; IP with rabbit polyclonal anti-OA1 and blot with anti-Gαi3, and the reciprocal IP with anti-Gαi3 and blot with anti-OA1; pre-immune serum as control; protein G-Sepharose.

In assay [4] the target is OA1 (human ocular albinism type 1 G-protein-coupled receptor), endogenous in RPE (human (endogenous in RPE)) (UniProt P51810). The description is as above.

For “35S-labeled Gαi3, in-vitro transcribed and translated (from UniProt P08754 1-354)”, the binding entry in assay [1] and in assay [2] was “binds” throughout. Regarding “OA1 (human ocular albinism type 1 G-protein-coupled receptor), endogenous in RPE (from UniProt P51810 1-404)”, in assay [3], the binding result is listed as “binds”. Take “35S-labeled Gαs, in-vitro transcribed and translated (from UniProt P63092 1-394)”: the binding entry in assay [1] and in assay [2] was “no binding” throughout. Regarding “35S-labeled Gαi2, in-vitro transcribed and translated (from UniProt P04899 1-355)”, the binding result in assay [1] and in assay [2] was “no binding” in each case. For “35S-labeled Gαq, in-vitro transcribed and translated (from UniProt P50148 1-359)”, the binding result in assay [1] and in assay [2] was “no binding” throughout. As for “Gαi3 (guanine nucleotide binding protein, alpha inhibiting activity polypeptide 3), endogenous in human RPE (from UniProt P08754 1-354)”, the binding entry in assay [4] is “binds”. Turning to “35S-labeled Gαi1, in-vitro transcribed and translated (from UniProt P63096 1-354)”, the binding entry in assay [1] and in assay [2] was “no binding” throughout.

The record behind these values is PMC3169599.
